From patent publication US7592316B2, “Peptides as NS3-serine protease inhibitors of hepatitis C virus” (Schering Corporation, priority 2000, dated 2009)
*1 amine or outer side, *2 acyl side, *3 side chain or, on linkers, in order; H or OH if unused. Where a SMILES comes first, the peptide text is derived from it. [ ]: non-standard residue; d: D form. The star is where a group is joined. ξ: configuration not given here. ξ(3-Amino-2-oxopentanoyl) = CCC(N[*:1])C(=O)C(=O)[*:2]; Pro(3S,4R-CMe2) = CC1(C)[C@H]2[C@@H](C(=O)O)NC[C@H]21; Pro(3S,4R-methano) = O=C(O)[C@H]1NC[C@@H]2C[C@@H]21; Leuψ(COCO) = CC(C)C[C@H](N[*:1])C(=O)C(=O)[*:2]; ξPhg(3,5-(OMe)2) = COc1cc(OC)cc(C(N)C(=O)O)c1; ξLeu(ψCOCO) = CC(C)CC(N[*:1])C(=O)C(=O)[*:2]; ξPro(4R-OtBu) = CC(C)(C)O[C@H]1CNC(C(=O)O)C1; ξPhg(2,3-(OMe)2) = COc1cccc(C(N)C(=O)O)c1OC; Neopentyloxycarbonyl = CC(C)(C)COC(=O)*; Pro(4,4-Me2) = CC1(C)CN[C@H](C(=O)O)C1; X52 = O=C(C(N[*:1])c1cccc2c1OCO2)[*:2]; X12 = CCC[C@H](N[*:1])C(=O)C(=O)[*:2]; Isobutyloxycarbonyl = CC(C)COC(=O)*; ξPhg(3-Cl) = NC(C(=O)O)c1cccc(Cl)c1; ξPro(4R-Me) = C[C@H]1CNC(C(=O)O)C1; Isopropoxycarbonyl = CC(C)OC(=O)*; X4 = CCCCC(N[*:1])C(=O)C(=O)[*:2]; ξPhg(3-F) = NC(C(=O)O)c1cccc(F)c1; Hyp = O=C(O)[C@@H]1C[C@@H](O)CN1; X2 = CCCC(N[*:1])C(=O)C(=O)[*:2]; Aad = N[C@@H](CCCC(=O)O)C(=O)O; Chg = N[C@H](C(=O)O)C1CCCCC1; Phg = N[C@H](C(=O)O)c1ccccc1; Tle = CC(C)(C)[C@H](N)C(=O)O; ξhPhe = NC(CCc1ccccc1)C(=O)O; X75 = NC(=O)CC(N*)c1ccccc1; ξPhg = NC(C(=O)O)c1ccccc1; ξTle = CC(C)(C)C(N)C(=O)O; Carboxymethyl = O=C(O)C*; PhAc = O=C(Cc1ccccc1)*; ξL = CC(C)CC(N)C(=O)O; ξhSer = NC(CCO)C(=O)O; ξK = NCCCCC(N)C(=O)O; ξV = CC(C)C(N)C(=O)O; Bn = c1ccc(C*)cc1; OtBu = CC(C)(C)O*; ξS = NC(CO)C(=O)O; Ms = CS(=O)(=O)*; tBu = CC(C)(C)*

Biological target: HCV NS3/NS4A protease (strain 1a) (Hepatitis C virus genotype 1a, UniProt P27958)
Assay: biochemical
Conditions: Compounds prepared by Solid Phase Synthesis, Table 3; read-out: Ki* CLASS

`CCCC(NC(=O)[C@@H]1C[C@@H](OCC(=O)O)CN1C(=O)C(NC(=O)OCC(C)C)C(C)C)C(=O)C(=O)NCC(=O)NC(CCCCN)C(N)=O` (stereo partly drawn) (Isobutyloxycarbonyl-[ξV][Hyp](Carboxymethyl)[X2]G[ξK]-NH2) and `CCCC(NC(=O)[C@@H]1C[C@@H](OCC(=O)O)CN1C(=O)C(NC(=O)OCC(C)C)C(C)C)C(=O)C(=O)NCC(=O)NC(CCO)C(N)=O` (stereo partly drawn) (Isobutyloxycarbonyl-[ξV][Hyp](Carboxymethyl)[X2]G[ξhSer]-NH2) cannot be ordered by Ki: greater than 1000 nM for the first, greater than 1000 nM for the second.

`CCCC(NC(=O)[C@@H]1C[C@@H](OCC(=O)O)CN1C(=O)C(NC(=O)OCC(C)C)C(C)C)C(=O)C(=O)NCC(=O)NC(CC(C)C)C(N)=O` (stereo partly drawn) (Isobutyloxycarbonyl-[ξV][Hyp](Carboxymethyl)[X2]G[ξL]-NH2) and `CCCC(NC(=O)[C@@H]1C[C@@H](OCC(=O)O)CN1C(=O)C(NC(=O)OCC(C)C)C(C)C)C(=O)C(=O)NCC(=O)NC(C(N)=O)C(C)(C)C` (stereo partly drawn) (Isobutyloxycarbonyl-[ξV][Hyp](Carboxymethyl)[X2]G[ξTle]-NH2) cannot be ordered by Ki: greater than 1000 nM for the first, greater than 1000 nM for the second.

`CCCC(NC(=O)[C@@H]1C[C@@H](OCC(=O)O)CN1C(=O)C(NC(=O)OCC(C)C)C(C)C)C(=O)C(=O)NCC(=O)NC(C(N)=O)c1ccccc1` (stereo partly drawn) (Isobutyloxycarbonyl-[ξV][Hyp](Carboxymethyl)[X2]G[ξPhg]-NH2) and `CCCC(NC(=O)[C@@H]1C[C@@H](OCC(=O)O)CN1C(=O)C(NC(=O)OCC(C)C)C(C)C)C(=O)C(=O)NCC(=O)NC(CCc1ccccc1)C(N)=O` (stereo partly drawn) (Isobutyloxycarbonyl-[ξV][Hyp](Carboxymethyl)[X2]G[ξhPhe]-NH2) cannot be ordered by Ki: greater than 1000 nM for the first, greater than 1000 nM for the second.

First: CCCC(NC(=O)[C@@H]1C[C@@H](OCC(=O)O)CN1C(=O)C(NC(=O)OCC(C)C)C(C)C)C(=O)C(=O)NCC(=O)NC(COCc1ccccc1)C(N)=O (stereo partly drawn) (Isobutyloxycarbonyl-[ξV][Hyp](Carboxymethyl)[X2]G[ξS](Bn)-NH2)
Second: CCCC(NC(=O)[C@@H]1C[C@@H](OCc2ccccc2)CN1C(=O)[C@H](CCCC(=O)O)NC(=O)Cc1ccccc1)C(=O)C(=O)NCC(=O)N[C@H](C(N)=O)c1ccccc1 (stereo partly drawn) (PhAc-[Aad][Hyp](Bn)[X2]G[Phg]-NH2)
The Ki of the first is higher: greater than 1000 nM for the first, 101 to 1000 nM for the second.

`CCCC(NC(=O)[C@@H]1C[C@@H](OC(C)(C)C)CN1C(=O)[C@@H](NC(=O)[C@@H](NS(C)(=O)=O)C(C)C)C1CCCCC1)C(=O)C(=O)NCC(=O)NC(CC(N)=O)c1ccccc1` (stereo partly drawn) (Ms-V[Chg][Hyp](tBu)[X2]G-X75) and `CCCC(NC(=O)[C@@H]1C[C@@H](OC(C)(C)C)CN1C(=O)[C@@H](NC(=O)[C@@H](NS(C)(=O)=O)C(C)C)C1CCCCC1)C(=O)C(=O)NCC(=O)NC(C(N)=O)c1cccc(F)c1` (stereo partly drawn) (Ms-V[Chg][Hyp](tBu)[X2]G[ξPhg(3-F)]-NH2) fall in the same range of Ki: 101 to 1000 nM for the first, 101 to 1000 nM for the second.

`CCCC(NC(=O)[C@@H]1C[C@@H](OC(C)(C)C)CN1C(=O)[C@@H](NC(=O)[C@@H](NS(C)(=O)=O)C(C)C)C1CCCCC1)C(=O)C(=O)NCC(=O)NC(C(N)=O)c1cccc2c1OCO2` (stereo partly drawn) (Ms-V[Chg][Hyp](tBu)[X2]G[X52]-NH2) and `CCCC(NC(=O)[C@@H]1C[C@@H](OC(C)(C)C)CN1C(=O)[C@@H](NC(=O)[C@@H](NS(C)(=O)=O)C(C)C)C1CCCCC1)C(=O)C(=O)NCC(=O)NC(C(N)=O)c1cccc(OC)c1OC` (stereo partly drawn) (Ms-V[Chg][Hyp](tBu)[X2]G[ξPhg(2,3-(OMe)2)]-NH2) fall in the same range of Ki: 101 to 1000 nM for the first, 101 to 1000 nM for the second.

`CCCC(NC(=O)[C@@H]1C[C@@H](OC(C)(C)C)CN1C(=O)[C@@H](NC(=O)[C@@H](NS(C)(=O)=O)C(C)C)C1CCCCC1)C(=O)C(=O)NCC(=O)NC(C(N)=O)c1cc(OC)cc(OC)c1` (stereo partly drawn) (Ms-V[Chg][Hyp](tBu)[X2]G[ξPhg(3,5-(OMe)2)]-NH2) and `CCCC(NC(=O)[C@@H]1C[C@@H](O)CN1C(=O)[C@@H](NC(=O)Cc1ccccc1)C1CCCCC1)C(=O)C(=O)NCC(=O)NC(C(N)=O)c1cc(OC)cc(OC)c1` (stereo partly drawn) (PhAc-[Chg][Hyp][X2]G[ξPhg(3,5-(OMe)2)]-NH2) fall in the same range of Ki: 101 to 1000 nM for the first, 101 to 1000 nM for the second.

First: CCCC(NC(=O)[C@@H]1C[C@@H](OCc2ccccc2)CN1C(=O)[C@H](CCCC(=O)OC(C)(C)C)NC(=O)Cc1ccccc1)C(=O)C(=O)NCC(=O)N[C@H](C(N)=O)c1ccccc1 (stereo partly drawn) (PhAc-[Aad](OtBu)[Hyp](Bn)[X2]G[Phg]-NH2)
Second: CCCC(NC(=O)[C@@H]1C[C@@H](OC(C)(C)C)CN1C(=O)[C@@H](NC(=O)Cc1ccccc1)C1CCCCC1)C(=O)C(=O)NCC(=O)N[C@H](C(N)=O)c1ccccc1 (stereo partly drawn) (PhAc-[Chg][Hyp](tBu)[X2]G[Phg]-NH2)
The Ki of the first is higher: greater than 1000 nM for the first, 1 to 100 nM for the second. The second binds more tightly here.

First: CCCC(NC(=O)[C@@H]1C[C@@H](OC(C)(C)C)CN1C(=O)[C@@H](NC(=O)Cc1ccccc1)C1CCCCC1)C(=O)C(=O)NCC(=O)N[C@H](CC(=O)OC(C)(C)C)C(N)=O (stereo partly drawn) (PhAc-[Chg][Hyp](tBu)[X2]G[dD](OtBu)-NH2)
Second: CCCC(NC(=O)[C@@H]1C[C@@H](OC(C)(C)C)CN1C(=O)[C@@H](NC(=O)Cc1ccccc1)C1CCCCC1)C(=O)C(=O)NCC(=O)NC(C(N)=O)c1cccc(Cl)c1 (stereo partly drawn) (PhAc-[Chg][Hyp](tBu)[X2]G[ξPhg(3-Cl)]-NH2)
The Ki of the first is higher: greater than 1000 nM for the first, 101 to 1000 nM for the second. The second binds more tightly here.

Compared with `CCC(NC(=O)[C@@H]1C[C@@H](OC(C)(C)C)CN1C(=O)[C@@H](NC(=O)Cc1ccccc1)C1CCCCC1)C(=O)C(=O)NCC(=O)N[C@H](C(N)=O)c1ccccc1` (stereo partly drawn) (PhAc-[Chg][Hyp](tBu)[ξ(3-Amino-2-oxopentanoyl)]G[Phg]-NH2), `CC(C)CC(NC(=O)[C@@H]1C[C@@H](OC(C)(C)C)CN1C(=O)[C@@H](NC(=O)Cc1ccccc1)C1CCCCC1)C(=O)C(=O)NCC(=O)N[C@H](C(N)=O)c1ccccc1` (stereo partly drawn) (PhAc-[Chg][Hyp](tBu)[ξLeu(ψCOCO)]G[Phg]-NH2) is higher in Ki: 101 to 1000 nM for the first, greater than 1000 nM for the second. The first binds more tightly here.

Same assay, conditions: Table 4; HCV NS3/NS4A protease, spectrophotometric assay, 30° C., pH 6.5; read-out: Ki* Range

Compared with `CCCC(NC(=O)C1C[C@@H](OC(C)(C)C)CN1C(=O)[C@@H](NC(=O)OC(C)C)C1CCCCC1)C(=O)C(=O)NCC(=O)N[C@H](C(=O)O)c1ccccc1` (stereo partly drawn) (Isopropoxycarbonyl-[Chg][ξPro(4R-OtBu)][X2]G[Phg]-OH), `CCCC(NC(=O)C1C[C@@H](OC(C)(C)C)CN1C(=O)[C@@H](NC(=O)OCC(C)(C)C)C1CCCCC1)C(=O)C(=O)NCC(=O)N[C@H](C(=O)O)c1ccccc1` (stereo partly drawn) (Neopentyloxycarbonyl-[Chg][ξPro(4R-OtBu)][X2]G[Phg]-OH) is higher in Ki: 1 to 100 nM for the first, 101 to 1000 nM for the second.

`CCC[C@H](NC(=O)[C@@H]1[C@H]2C[C@H]2CN1C(=O)[C@@H](NC(=O)OC(C)C)C(C)(C)C)C(=O)C(=O)NCC(=O)N[C@H](C(=O)N(C)C)c1ccccc1` (Isopropoxycarbonyl-[Tle][Pro(3S,4R-methano)][X12]G[Phg]-NMe2) and `CCCC(NC(=O)[C@@H]1CC(C)(C)CN1C(=O)[C@@H](NC(=O)OC(C)C)C(C)(C)C)C(=O)C(=O)NCC(=O)NC(C(=O)N(C)C)c1ccccc1` (stereo partly drawn) (Isopropoxycarbonyl-[Tle][Pro(4,4-Me2)][X2]G[ξPhg]-NMe2) fall in the same range of Ki: 1 to 100 nM for the first, 1 to 100 nM for the second.

Compared with `CC(C)C[C@H](NC(=O)[C@@H]1CC(C)(C)CN1C(=O)[C@@H](NC(=O)OC(C)C)C(C)(C)C)C(=O)C(=O)NCC(=O)N[C@H](C(=O)N(C)C)c1ccccc1` (Isopropoxycarbonyl-[Tle][Pro(4,4-Me2)][Leuψ(COCO)]G[Phg]-NMe2), `CCCC(NC(=O)C1C[C@@H](C)CN1C(=O)[C@@H](NC(=O)OCC(C)(C)C)C1CCCCC1)C(=O)C(=O)NCC(=O)N[C@H](C(=O)O)c1ccccc1` (stereo partly drawn) (Neopentyloxycarbonyl-[Chg][ξPro(4R-Me)][X2]G[Phg]-OH) is higher in Ki: 1 to 100 nM for the first, 101 to 1000 nM for the second. The first binds more tightly here.

Same assay, conditions: Table 5; HCV NS3/NS4A protease, spectrophotometric assay, 30° C., pH 6.5; read-out: Ki* Range

Work on `CCCCC(NC(=O)[C@@H]1[C@H]2[C@@H](CN1C(=O)[C@@H](NC(=O)OC(C)C)C(C)(C)C)C2(C)C)C(=O)C(=O)NCC(=O)N[C@H](C(=O)N(C)C)c1ccccc1` (stereo partly drawn) (Isopropoxycarbonyl-[Tle][Pro(3S,4R-CMe2)][X4]G[Phg]-NMe2) yielded a Ki of 1 to 100 nM.
